Here are results for two compounds from a compilation of properties of binary mixtures (doi:10.1021/acs.jced.1c00023).

The data set can be described thus: xn = mol fraction of the nth substance listed. Particulars: 101.3 kPa.

The term mass density denotes mass per unit of volume.

Molecules are shown by their SMILES. The densities may have been worked out from excess volumes.

Take `Oc1cccc(O)c1O` + CCCCCCCCCCCC[N+](C)(C)C.[Br-]: the mass density is recorded as 1173 kg/m3 (293.15 K, x2 = 0.333); 1169.4 kg/m3 (298.15 K, x2 = 0.333); 1165.6 kg/m3 (303.15 K, x2 = 0.333); 1161.7 kg/m3 (308.15 K, x2 = 0.333); 1158.1 kg/m3 (313.15 K, x2 = 0.333); 1154.6 kg/m3 (318.15 K, x2 = 0.333). Further, the mass density runs as follows: (323.15 K, x2 = 0.333) 1151.1 kg/m3; (328.15 K, x2 = 0.333) 1147.6 kg/m3.
Take `Oc1cccc(O)c1O` + CCC[N+](CCC)(CCC)CCC.[Br-]: the mass density runs as follows: (298.15 K, x2 = 0.5) 1204.7 kg/m3; (318.15 K, x2 = 0.5) 1190.2 kg/m3; (323.15 K, x2 = 0.5) 1186.8 kg/m3; (328.15 K, x2 = 0.5) 1183.4 kg/m3.
